# Laboratory results published in the supplement of paper PMC4604168 (melanoma cell lines).
# The other results are listed elsewhere or left out. Most values come without repeats; read them as rough.
# Experiments:
# Test in all cases: cell count relative to DMSO control; melanoma cells; higher = more viable cells
# Conditions in all cases: library dose: standard library concentration; 72 h
# G361 = test system: G361
# IPC-298 = test system: IPC-298
# IST-MEL1 = test system: IST-MEL1
# LB2518-MEL = test system: LB2518-MEL
# LOXIMVI = test system: LOXIMVI
# MEL-HO = test system: MEL-HO
# MZ2-MEL = test system: MZ2-MEL
# MeWo = test system: MeWo
# RPMI7951 = test system: RPMI7951
# RVH-421 = test system: RVH-421
# SkMel28 = test system: SkMel28
# SkMel2 = test system: SkMel2
# SkMel30 = test system: SkMel30
# SkMel5 = test system: SkMel5
# UACC257 = test system: UACC257
# UACC62 = test system: UACC62
# WM115 = test system: WM115
# WM1716 = test system: WM1716
# WM1745 = test system: WM1745
# WM3526 = test system: WM3526
# 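Note: cells treated in 1,536-well plates, then fixed and DAPI-stained, with nuclei counted from automated high-throughput microscope images.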
SMILES,cell count (G361) [%],cell count (IPC-298) [%],cell count (IST-MEL1) [%],cell count (LB2518-MEL) [%],cell count (LOXIMVI) [%],cell count (MEL-HO) [%],cell count (MZ2-MEL) [%],cell count (MeWo) [%],cell count (RPMI7951) [%],cell count (RVH-421) [%],cell count (SkMel28) [%],cell count (SkMel2) [%],cell count (SkMel30) [%],cell count (SkMel5) [%],cell count (UACC257) [%],cell count (UACC62) [%],cell count (WM115) [%],cell count (WM1716) [%],cell count (WM1745) [%],cell count (WM3526) [%]
"NCC(=O)Nc1ccc(-n2nc(C(F)(F)F)cc2-c2ccc3c(ccc4ccccc43)c2)cc1 + C/C(O)=C(\C#N)C(=O)Nc1cc(Br)ccc1Br [LFM-A13] (first compound 5 µM, partner dose 10 µM)",78.4,48.7,86.3,86.6,74,70.9,71.1,95.2,103,90.3,20.2,36.7,45.2,61.4,79.4,67.8,77.5,96,98.7,41.9
"CC(C)(C)c1cnc(CSc2cnc(NC(=O)C3CCNCC3)s2)o1 + Cc1cc(SCc2sc(-c3ccc(C(F)(F)F)c(F)c3)nc2C)ccc1OCC(=O)O [GW0742] (first compound 0.05 µM, partner dose 10 µM)",101,105,97.8,61.2,76.2,104,106,89.9,66.4,86.8,68.1,78.8,93.5,84.2,115,71.6,84.9,96.8,73.5,84.8
"N#CC[C@H](C1CCCC1)n1cc(-c2ncnc3[nH]ccc23)cn1 [ruxolitinib] + C[C@]12O[C@H](C[C@]1(O)CO)n1c3ccccc3c3c4c(c5c6ccccc6n2c5c31)CNC4=O [Lestaurtinib] (first compound 5 µM, partner dose 0.02 µM)",60.7,62.2,76,63.4,130,78.9,91.3,67.9,85.3,70.2,56.6,85,67.6,59.1,79.7,75.6,71.6,65.6,78.5,63.7
"Cn1sc(=O)n(Cc2ccccc2)c1=O + N.N.[Cl][Pt][Cl] [cisplatin] (first compound 2 µM, partner dose 8 µM)",95.3,92,83.7,87.3,47.5,91.6,91.6,110,66.1,75.9,58.3,76.2,86.7,105,76.2,94.1,84,82.3,92.6,76.4
"Cc1cn(-c2cc(NC(=O)c3ccc(C)c(Nc4nccc(-c5cccnc5)n4)c3)cc(C(F)(F)F)c2)cn1 [nilotinib] + C[C@]12O[C@H](C[C@]1(O)CO)n1c3ccccc3c3c4c(c5c6ccccc6n2c5c31)CNC4=O [Lestaurtinib] (first compound 1 µM, partner dose 0.02 µM)",62.4,66.4,100,55.3,112,82,84.7,65.4,63.4,65.9,68.4,88.2,74.3,50.6,100,68.1,69.6,98.3,57.4,50.1
"Cc1cc(SCc2sc(-c3ccc(C(F)(F)F)c(F)c3)nc2C)ccc1OCC(=O)O + O=C1NC(=O)/C(=C/c2ccc(-c3ccc(F)cc3O)o2)S1 [AS252424] (first compound 10 µM, partner dose 5 µM)",79.4,88.3,95.4,85.3,97,77.5,89.8,81,83.5,85.3,89.9,78,81.5,96.1,78.3,111,76.1,95.8,84.8,83.2
"CCc1ccc(CCOc2ccc(CC3SC(=O)NC3=O)cc2)nc1 (stereo not given) [pioglitazone] + Cc1cc(SCc2sc(-c3ccc(C(F)(F)F)c(F)c3)nc2C)ccc1OCC(=O)O [GW0742] (first compound 10 µM, partner dose 10 µM)",78.6,87.5,103,82.3,80.2,81.3,101,102,86.9,21.1,84.9,87.9,103,77.6,83,92.1,74.7,117,84.5,92.9
"CC1(C)CCC(c2ccc(Cl)cc2)=C(CN2CCN(c3ccc(C(=O)NS(=O)(=O)c4ccc(N[C@H](CCN5CCOCC5)CSc5ccccc5)c(S(=O)(=O)C(F)(F)F)c4)cc3)CC2)C1 + N.N.[Cl][Pt][Cl] [cisplatin] (first compound 2 µM, partner dose 8 µM)",69.2,85.2,73.9,67.9,73.9,64.5,73,66.6,23.6,52.6,77.9,61.8,57.8,61.6,40.9,45.4,70.3,49.6,3.62,66.6
"C[C@@H](N)c1ccc(C(=O)Nc2ccnc3[nH]ccc23)cc1 + Cn1cc(C2=C(c3cn(C4CCN(Cc5ccccn5)CC4)c4ccccc34)C(=O)NC2=O)c2ccccc21 [Enzastaurin] (first compound 2 µM, partner dose 4 µM)",51.7,83.7,69.6,66.4,77.4,84.1,56.3,80.9,33.2,24.9,42.5,61,103,62.7,74,59.1,74.7,8.55,23.7,88.5
"O=C(Oc1ccc([N+](=O)[O-])cc1)N1CCC(C(O)(c2ccc3c(c2)OCO3)c2ccc3c(c2)OCO3)CC1 + O=c1cc(-c2cccc3c2Sc2ccccc2S3)oc(N2CCOCC2)c1 [KU55933] (first compound 5 µM, partner dose 5 µM)",74.8,84.5,91.3,113,104,81.1,85.2,84.3,70,101,66,85.5,77.5,88.9,85.6,70.2,95.8,77.7,94.3,55.6
"O=C(/C=C/c1cccnc1)NCCCCC1CCN(C(=O)c2ccccc2)CC1 + C[As](C)SC[C@H](NC(=O)CC[C@H](N)C(=O)O)C(=O)NCC(=O)O [Darinaparsin] (first compound 0.05 µM, partner dose 2 µM)",3.06,21.8,52.9,46.5,74.5,34.4,19.5,68.9,93.6,41,78.6,10.1,86.4,54.5,107,66,73.9,61.8,102,64
"CCN(CC)CCNC(=O)c1c(C)[nH]c(/C=C2\C(=O)Nc3ccc(F)cc32)c1C [sunitinib] + C[As](C)SC[C@H](NC(=O)CC[C@H](N)C(=O)O)C(=O)NCC(=O)O [Darinaparsin] (first compound 2 µM, partner dose 2 µM)",55.2,70.2,77.3,48.9,110,72,78,42.4,53.1,77.9,43.9,59.7,44.8,30.1,86.2,45.4,50,85.2,40.3,42.5
"NC1(c2ccc(-c3nc4ccn5c(=O)[nH]nc5c4cc3-c3ccccc3)cc2)CCC1 + N.N.[Cl][Pt][Cl] [cisplatin] (first compound 2 µM, partner dose 8 µM)",84.3,112,89.5,72,67.1,95.1,103,94.2,80.3,74,59.4,91.4,116,87.1,86.2,63.2,76.6,84.2,65.3,75.5
"Cc1cc(Nc2cc(N3CCN(C)CC3)nc(/C=C/c3ccccc3)n2)n[nH]1 + N.N.[Cl][Pt][Cl] [cisplatin] (first compound 0.2 µM, partner dose 8 µM)",107,94.8,112,85.2,79.2,104,116,105,91.2,88.8,111,97.4,109,79.8,75.2,101,101,88.6,94.7,118
"Cn1cncc1[C@@](N)(c1ccc(Cl)cc1)c1ccc2c(c1)c(-c1cccc(Cl)c1)cc(=O)n2C [tipifarnib] + C/C(O)=C(\C#N)C(=O)Nc1cc(Br)ccc1Br [LFM-A13] (first compound 0.05 µM, partner dose 10 µM)",81.9,83.2,80.3,74.2,73.1,80.1,75.5,102,61.3,85.1,62.4,83.4,84,68.1,96.1,69.9,69.8,72.7,101,75.8
"Cc1cc(SCc2sc(-c3ccc(C(F)(F)F)c(F)c3)nc2C)ccc1OCC(=O)O + c1cc(-c2cnn3cc(-c4ccc(OCCN5CCCCC5)cc4)cnc23)ccn1 [Dorsomorphin] (first compound 10 µM, partner dose 2 µM)",64.9,90.5,89.5,72.9,92.1,89.6,83.6,77.4,85.7,168,53.8,87.5,80.5,57,63,64.4,73.7,80,65.1,93.1
